# The other results are listed elsewhere or left out. Sequences were assembled here from the parent chain. Values near 0.05 are background.
# B1: TEV protease; numbered along this chain (parent)
# chain: MGESLFKGPRDYNPISSSICHLTNESDGHTTSLYGIGFGPFIITNKHLFRRNNGTLVVQSLHGVFKVKDTTTLQQHLVDGRDMIIIRMPKDFPPFPQKLKFREPQREERICLVTTNFQTKSMSSMVSDTSCTFPSGDGIFWKHWIQTKDGQCGSPLVSTRDGFIVGIHSASNFTNTNNYFTSVPKNFMELLTNQEAQQWVSGWRLNADSVLWGGHKVFMVKPEEPFQPVKEATQL
# Variants of: B1
# Test: raw area under fraction-flipped curve 0-4 h after induction (AUC4h, not background-subtracted), DNA-recorder readout of cleavage of the substrate (dimensionless); higher = more cleavage of the substrate by the protease variant
# Conditions: temperature: 34 °C; time window: 0-4 h after rhamnose induction
# 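Further: Bxb1 expression induced with 0.2% (w/v) L-rhamnose at OD600 near 0.5, cultures sampled hourly, flipped fraction per protease–substrate barcode pair counted by paired-end Illumina sequencing.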
Variant,area with substrate ENLYFQC,area with substrate ENLYFQF,area with substrate ENLYFQG,area with substrate ENLYFQH,area with substrate ENLYFQI,area with substrate ENLYFQK,area with substrate ENLYFQL,area with substrate ENLYFQN,area with substrate ENLYFQP,area with substrate ENLYFQQ,area with substrate ENLYFQR,area with substrate ENLYFQS,area with substrate ENLYFQT,area with substrate ENLYFQV,area with substrate ENLYFQW,area with substrate ENLYFQY,area with substrate ENLYFQD,area with substrate ENLYFQM,area with substrate ENLYFQE
S124Q,0.0797,0.0616,0.0972,0.0788,0.07,0.0494,0.0852,0.0763,0.0337,0.0645,0.061,0.111,0.0691,0.0566,0.0725,0.0661,,,
S124D,0.112,0.0829,0.106,0.0768,0.0646,,0.0683,0.0728,0.0661,,0.0535,0.0989,0.0678,,0.0462,0.0717,0.0792,0.108,
S124M,0.0983,,0.0904,,0.0538,0.0681,0.0617,,,0.0754,0.0591,0.105,0.0804,,0.0646,,0.0742,0.127,
E107K,,0.0785,0.12,0.0893,0.0636,,0.0527,0.0806,,0.105,0.0648,0.103,,0.072,0.0642,0.0747,0.0727,,
S18L,,,0.0805,0.0705,0.0572,0.057,,0.0744,0.0474,0.0673,0.0542,0.0936,0.0602,0.0391,0.0662,0.0817,0.0654,0.0708,
F226K,0.0947,0.0852,,0.0745,0.0542,,0.0625,0.0768,,,0.0585,0.106,0.0656,0.0596,0.0635,0.0763,0.0711,0.108,
F226A,0.116,,,0.115,,,0.0698,,0.0666,,,0.112,0.0599,,,0.0943,,,
S130N,0.124,0.0444,,0.0689,,0.0706,0.0451,,,,,0.0925,0.0741,0.0509,0.0702,,,0.0692,
K142M,0.153,,0.105,0.0937,0.03,,0.0542,0.0833,,,0.0684,0.102,0.0596,,0.0606,0.0911,0.0677,0.0657,
A207V,0.117,,0.12,,0.0765,0.0737,0.0682,0.0699,0.0571,,0.056,0.105,0.0705,,0.0556,,0.0631,0.102,
A207E,0.0943,,,,0.0532,,0.0618,0.0729,0.0634,,0.0613,0.116,0.0718,,,,,0.0698,
K148I,0.107,0.0763,,0.0388,0.0556,0.0648,0.077,,,,0.0666,0.1,0.0631,,,,,0.085,
K148P,0.0699,,0.0816,,,0.0689,,0.0676,,,0.0613,0.0798,0.0451,,0.0641,0.053,0.0568,,0.0613
K185E,0.117,0.108,,0.0883,0.0694,0.0679,0.0618,0.0748,0.0833,0.0665,,0.115,0.0718,,0.0774,0.102,,0.0833,
S154P,0.0744,,0.0584,,0.0715,,,0.0539,,,,0.0607,,,0.051,,,,
I86E,,0.0274,0.0395,0.0395,0.0334,0.0493,0.0468,,,0.0129,0.0407,0.0373,0.0343,0.0438,,,0.0394,,
D161T,0.0943,,0.0932,0.0675,0.0586,0.0633,0.0483,0.0658,,0.0656,0.0629,0.0917,0.0355,0.0674,0.0663,0.076,,0.0711,
T115W,0.133,,,,0.0816,,0.0764,,0.0627,,,0.0983,0.0788,0.0629,,,0.0847,0.076,
F187H,0.0702,0.0659,0.0643,,0.0613,0.0486,0.0465,0.0399,0.0633,,0.0601,0.0645,0.0569,0.0501,0.0452,,0.0576,0.063,0.0695
G8R,,0.0653,,,,,,,,,,0.115,0.0523,,,,0.0754,0.0692,
G213W,0.0529,,0.0624,0.0491,0.0576,0.041,0.0564,0.0605,0.0631,0.0655,0.0561,0.0574,0.0541,0.0542,0.0584,0.064,,0.0555,0.0482
D137K,0.0899,,0.0804,0.0803,0.0642,,0.0561,,,,0.0424,0.0899,0.0613,,0.0708,0.0734,0.0806,0.0899,
D149K,0.0879,0.0646,0.0819,,,0.0524,0.067,0.0841,0.0545,,0.0532,0.0862,,,,0.0596,,0.0607,0.07
H76Q,,,0.0983,,,,,0.0777,,,,0.0984,0.0704,,,0.0805,0.0675,0.0841,
K120Q,0.128,,0.0927,,0.0581,,0.0695,0.0787,,,0.0499,0.104,0.06,0.0444,0.0404,0.0809,,0.0645,
V165F,0.0506,,0.0481,,,0.0492,0.022,0.0545,,,0.0467,0.0503,0.0526,0.0425,0.0568,,,0.0556,
V183E,0.0459,,,0.0495,,0.0572,0.019,,0.0695,,,0.0489,0.046,,0.051,,,0.0568,
N175T,0.0759,,0.0723,0.0552,,,,,,0.0589,0.0679,0.0678,0.0733,,,,0.073,,
N175D,0.0654,0.0581,0.0634,0.0498,0.0452,,0.0548,0.0626,0.0525,0.0587,0.0586,0.0673,,0.068,0.0619,,0.0643,0.0686,0.0602

# From the supplement of paper PMC12217912
